Results published in PubChem BioAssay AID686978 (National Center for Advancing Translational Sciences (NCATS), 2013).
Screen size: about 420,000 compounds; about 64,000 (15%) were called active. The shares of active, inactive and inconclusive entries below differ from those in the screen. Calls come from the whole dose curve; as a rule, active = well fitted inhibition curve with a large enough effect; inconclusive = small, poorly fitted or top-dose-only effect; inactive = flat fitted curve, though single readings scatter. No potency is given beside an inconclusive call; the fits are too rough.

Assay: qHTS for Inhibitors of human tyrosyl-DNA phosphodiesterase 1 (TDP1): qHTS in cells in absence of CPT; note: nearly all actives have a fitted effect of over 55% in size
Conditions: DT40 Tdp1-/- hTDP1 cells, no CPT, ATP luminescence, 48 h; activity change, negative = growth inhibition: at 46.2 µM (top of the series) unless noted
Method in brief: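 A cellular qHTS used chicken DT40 cells lacking endogenous Tdp1 but carrying stably transfected human TDP1. Compounds were applied without camptothecin, and cell growth kinetics were judged by ATP-dependent luminescence after ≥48 hr.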
% is set by controls: 0 for no effect and ±100 for the full control effect; potency is the fitted concentration of half-maximal effect; tags give direction and shape of the fitted curve.

Structure (SMILES) | Potency | activity change, negative = growth inhibition
O=C(CCS(=O)(=O)c1ccc(Br)cc1)NCCc1ccc(Cl)cc1 | inconclusive [inhibitor, partial curve] | –
CCc1ccc(-c2cc(C(=O)N/N=C/c3c[nH]c4ccccc34)[nH]n2)cc1 | active: 6.51 µM | –
COc1ccc(C2C(C#N)=C(C)NC3=C2C(=O)CC(C)(C)C3)c(OC)c1 (centres undefined) | inconclusive [inhibitor, single point] | –
Cc1[nH][nH]c(=O)c1C(c1ccc(O)c([N+](=O)[O-])c1)c1c(C)[nH][nH]c1=O | inconclusive [inhibitor, single point] | –
NC(c1ccccc1)c1csc(Nc2ccc(C(=O)NCCO)cc2)n1 (centres undefined) | inconclusive [inhibitor, single point] | –
CNC(=S)N1CCN(c2nc3ccccc3s2)CC1 | – | inactive: -15%
COc1ccc(OC)c(NC(=O)CSc2nc3ccccc3cc2Cc2ccccc2)c1 | inconclusive [inhibitor, single point] | –
O=C(COC(=O)CNC(=O)c1ccc(Cl)c([N+](=O)[O-])c1)NC(=O)CN1CCCC1=O | – | inactive: 15.7%
COc1ccccc1/C=N/NC(=O)CC(=O)NC1CCCCC1 | – | inactive: 17.3%
COCCn1c(=O)c(-c2cccs2)nc2cnc(OC)nc21 | – | inactive: 13.8%
COCCCNC(=S)N1CCN(Cc2ccc3c(c2)OCO3)CC1 | – | inactive: 7.85%
CCN(CC)C(=O)Cn1cc(S(=O)(=O)CC(=O)N2CC(C)OC(C)C2)c2ccccc21 (centres undefined) | – | inactive: 0.727%
COc1ccc(NC(=O)Nc2nnc(N3CCCC3)s2)cc1 | inconclusive [inhibitor, single point] | –
C=CCC[C@@H](Cc1ccc(F)cc1)C(=O)OC[C@@H](Cc1ccccc1)NC(=O)[C@@H](CC=C)CC(=O)N[C@@H](CO)Cc1ccccc1 | inconclusive [inhibitor, partial curve] | –
CN1CCN(C(=O)c2cnn(-c3ccc(F)cc3F)c2C2CCN(C(=O)OC(C)(C)C)CC2)CC1 | – | inactive: 3.91%
S=C(NCc1ccco1)NC1CCCc2ccccc21 (centres undefined) | inconclusive [inhibitor, single point] | –
CC(C)C(C(=O)Nc1ccncc1)c1ccc(Cl)cc1 (centres undefined) | active: 16.4 µM | –
Cc1cc(C)cc(N(CC(=O)NCCc2ccc(Cl)cc2)S(=O)(=O)c2c(C)noc2C)c1 | – | inactive: 0.52%
Cc1ccc(-c2cnc(-c3ccncc3)o2)cc1 | inconclusive [inhibitor, single point] | –
CN(C)CCOC1c2ccccc2CSc2ccccc21 (centres undefined) | – | inconclusive: -35.3% [inhibitor]
Cc1ccc2c(c1)c1c(c(=O)n(-c3ccccc3)c(=O)n1Cc1ccccc1C)n2C | – | inactive: -15.6%
C=C(C)CNC(=S)N/N=C/c1ccc(N2CCOCC2)cc1 | inconclusive [inhibitor, single point] | –
CCc1cccc(NC(=O)CCCn2nc(CC)n3c(cc4occc43)c2=O)c1 | inconclusive [inhibitor, single point] | –
O=C(Nc1ccccc1)c1ccc2c(c1)OCCCO2 | – | inactive: -2.63%
O=C(Nc1cccc(S(=O)(=O)C(F)F)c1)c1ccc(Cl)c(S(=O)(=O)N2CCOCC2)c1 | active: 18.4 µM | –

Structure (SMILES) | Potency | activity change, negative = growth inhibition
O=c1cc(N=Nc2ccc(Cl)cc2)[nH]c(=O)[nH]1 | active: 0.92 µM | –
N/C(=N\OC(=O)CN1C(=O)c2ccccc2C1=O)c1ccc(Cl)cc1 | inconclusive [inhibitor, single point] | –
Cc1ccnc(NC(=O)C2CCN(S(=O)(=O)c3ccc4ccccc4c3)CC2)c1 | inconclusive [inhibitor, single point] | –
O=C(N/N=C/c1c[nH]c2ccccc12)c1ccn(Cc2ccc(Cl)cc2)n1 | – | inactive: -28.9%
CNC(=O)NC(=O)C(c1ccccc1)N(C)CC1COc2ccccc2O1 (centres undefined) | inconclusive [inhibitor, single point] | –
CC(C)Sc1ccc(C(=O)Nc2ccc(F)cc2F)cn1 | active: 23.1 µM | –
COc1ccc(C=CC(=O)c2ccc(OC)c(OC)c2O)cc1OC | inconclusive [inhibitor, partial curve] | –
COc1ccccc1CNC(=O)c1cc(C(C)C)nc2ccccc12 | inconclusive [inhibitor, single point] | –
Cc1ccc(-n2ncc3c(SCc4cccnc4)ncnc32)c(C)c1 | active: 11.6 µM | –
CN(Cc1ccco1)c1ncnc2ccc(-c3cccc(C#N)c3)cc12 | active: 23.1 µM | –
CN(C)S(=O)(=O)N1CCN(c2ccc([N+](=O)[O-])c(NC3CC3)c2)CC1 | inconclusive [inhibitor, partial curve] | –
CCOC(=O)c1[nH]c(C)c(C(=O)N2CCN(c3cccc(Cl)c3)CC2)c1C | inconclusive [inhibitor, single point] | –
O=C(CCc1ccc(S(=O)(=O)NC2CCCCC2)cc1)NCc1cccnc1 | – | inactive: -7.96%
Cc1cc(NC(=O)c2cc(-c3ccccc3Cl)nc3ccccc23)no1 | inconclusive [inhibitor, partial curve] | –
CC(C)Cn1c(N)c(C(=O)COC(=O)c2cccc(Cl)c2)c(=O)n(C)c1=O | inconclusive [inhibitor, partial curve] | –
CCCc1cc(=O)n2[nH]c(NCc3cccs3)nc2n1 | inconclusive [inhibitor, full curve] | –
Cc1ccc(NC(=O)c2c(C)oc3ccc(O)c(CN4CCOCC4)c23)cc1 | inconclusive [inhibitor, single point] | –
Fc1cccc(CCN2CCNC[C@H]2Cc2cccc3ccccc23)c1 | inconclusive [inhibitor, single point] | –
O=C(/C=C/c1ccc(Cl)c(Cl)c1)N1CCOCC1 | – | inactive: -21.7%
CN(C)Cc1ccccc1-c1nccc(N(C)C)n1 | inconclusive [inhibitor, partial curve] | –
CC(Sc1ncccn1)C(=O)N1CCc2ccccc21 (centres undefined) | – | inactive: -3.78%
COc1ccc(C(=O)CSc2cc(C)nc(SCC(=O)c3ccc(C)cc3)n2)cc1 | – | inactive: -27%
Cc1ccc2c(=O)cc(C(=O)N(Cc3ccc(C(C)(C)C)cc3)C3CCS(=O)(=O)C3)oc2c1 (centres undefined) | inconclusive [inhibitor, single point] | –
CCCCNC(=O)C(=O)NCCCn1ccnc1 | – | inactive: 1.27%
CC(=O)c1ccccc1Oc1ncnc(N)c1[N+](=O)[O-] | – | inactive: 16.2%

Structure (SMILES) | Potency | activity change, negative = growth inhibition
COc1ccc2c(c1)c(C(=O)N/N=C/c1cccc(Br)c1)c(C)n2C | active: 10.3 µM | –
Cc1ccc(N(CC(=O)NCCSCc2ccco2)S(=O)(=O)c2ccc(C)cc2)cc1 | inconclusive [inhibitor, single point] | –
CCc1ccc(NC(=O)Cn2c(SCc3ccc(C)cc3)nc3ccncc32)cc1 | inconclusive [inhibitor, partial curve, poor fit] | –
O=C(NCc1cccs1)c1cccc2c(-c3ccc(F)c(F)c3)coc12 | inconclusive [inhibitor, single point] | –
O=C(NC(Cc1c[nH]c2ccccc12)c1nnc2n1CCCCC2)c1ccc(Cl)cc1 (centres undefined) | inconclusive [inhibitor, partial curve, poor fit] | –
CCN(CCn1cccn1)C(=O)CCc1nnc(C2CCCCC2)o1 | – | inactive: 23.6%
COc1ccc(CN(C)C(=O)Cc2c[nH]c3ccccc23)cc1 | – | inactive: -1.2%
O=C(/C=C/c1cccc(Cl)c1)NCCN1CCOCC1 | – | inactive: 8.1%
O=C(c1cc2c(Cl)nc3ccccc3c2s1)N1CCCCC1 | inconclusive [inhibitor, single point] | –
COC(=O)C1=CO[C@@H](O)C2C(CO)=CCC12 (some centres undefined) | inconclusive [inhibitor, single point] | –
COc1ccc2nc(C)cc(NCc3cccc(C(F)(F)F)c3)c2c1 | active: 13 µM | –
O=C(CN(C(=O)CSc1nnc(COc2ccccc2)o1)c1ccc(F)cc1)NC1CCCC1 | inconclusive [inhibitor, single point] | –
COc1ccc(C(=O)NNC(=O)c2cccc(S(=O)(=O)N3CCOCC3)c2)cc1 | – | inactive: -10.8%
Cc1cccc(N=N/C(=C\O)C(=O)c2ccc(Br)cc2)c1 | inconclusive [inhibitor, single point] | –
CCN(CC)CCCNC(=O)c1cc2c(=O)n(CC)c3ccccc3c2s1 | inconclusive [inhibitor, single point] | –
CC(C)CNS(=O)(=O)c1ccc(CCC(=O)NCc2ccc(Cl)cc2)cc1 | inconclusive [inhibitor, single point] | –
CCOc1ccc(NS(=O)(=O)c2ccc(C(=O)N3CCCCC3)cc2)cc1 | active: 13 µM | –
Cc1cccc(-c2n[nH]c(=S)n2/N=C/c2ccc(C)o2)c1 | – | inactive: 3.89%
O=[N+]([O-])c1cccc2nc(-c3ccccc3)c(-c3ccccc3)nc12 | inconclusive [inhibitor, single point] | –
COc1ccc(C(CNc2ccc(S(=O)(=O)N3CCCC3)cc2[N+](=O)[O-])N2CCCC2)cc1 (centres undefined) | inconclusive [inhibitor, single point] | –
COc1ccc(Cn2ccc3nc(C)c(C(=O)NCc4ccc(SC)cc4)cc3c2=O)cc1 | inconclusive [inhibitor, single point] | –
COc1ccccc1NS(=O)(=O)c1cccc(NS(=O)(=O)c2ccc(Cl)c(C(=O)O)c2)c1 | – | inactive: 2.04%
O=C(/C=C/c1cn(-c2ccccc2)nc1-c1cccnc1)N1CCCCC1 | active: 18.4 µM | –
Cn1cncc1C#Cc1ccc2cc(C3(O)CCCCC3)oc(=O)c2c1 | inconclusive [inhibitor, partial curve] | –
